Consider 3 molecules from patent US20200062844A1 (Regeneron, published 2020).

The target of assay [1] is T1, mfFcεR1α.MMH (cynomolgus (Macaca fascicularis)).
T1 construct: also called mfFceR1a.MMH; ectodomain of cynomolgus FcεR1α with C-term myc-myc-6×His tag
T1 chain: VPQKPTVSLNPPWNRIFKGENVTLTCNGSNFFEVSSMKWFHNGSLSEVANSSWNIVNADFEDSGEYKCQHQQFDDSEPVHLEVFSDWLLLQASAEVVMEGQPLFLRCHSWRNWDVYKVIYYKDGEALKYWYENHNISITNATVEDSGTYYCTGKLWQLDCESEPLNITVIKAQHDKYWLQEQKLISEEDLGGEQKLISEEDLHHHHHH
Kind of assay: SPR (Biacore 8k), antibody captured on anti-human Fc, mfFcεR1α.MMH injected, 25°C. As to the method: (§1) Equilibrium dissociation constants (KD) for human or cynomolgus FcεR1α ectodomain binding to purified anti-FcεR1α monoclonal antibodies (mAbs) and CD3×FcεR1α bispecific antibodies (bsAbs) were determined using a real-time surface plasmon resonance biosensor (SPR-Biacore), Biacore 8k. All binding studies were performed in 10 mM HEPES, 150 mM NaCl, 3 mM EDTA, and 0.05% v/v surfactant Tween-20, pH 7.4 (HBS-ET) running buffer at 25° C. and 37° C.
(§2) The Biacore CM4 sensor surface was first derivatized by amine coupling with a monoclonal mouse anti-human Fc antibody to capture approximately 500-900 RUs anti-FcεR1α monoclonal antibodies or anti-CD3×FcεR1α bispecific monoclonal antibodies. 1 RU (response unit) represents 1 pg of protein per mm², as defined by the manufacturer. The ectodomain of human and cynomolgus FcεR1α reagents were expressed with a C-term myc-myc-6×His tag-hFcεR1α.MMH (SEQ ID NO: 57) and mfFcεR1α.MMH (SEQ ID NO: 58). Different concentrations of FcεR1α reagents were prepared in HBS-ET running buffer (600 nM-7.4 nM; serially diluted by 3-fold) and injected over anti-human Fc captured anti-FcεR1α monoclonal antibodies or anti-CD3×FcεR1α bispecific monoclonal antibodies surfaces for 1 minute at a flow rate of 30 μL/minute. The dissociation of bound FcεR1α reagents was monitored for 4 minutes in HBS-ET running buffer. Association (kₐ) and dissociation (kd) rate constants were determined by fitting the real-time binding sensorgrams to a 1:1 binding model with mass transport limitation using Biacore 8k evaluation software. Binding dissociation equilibrium constants (KD) and dissociative half-lives (t½) were calculated from the kinetic rate constants as: […]

Assay [2] addresses T1, mfFcεR1α.MMH. Kind of assay: SPR (Biacore 8k), antibody captured on anti-human Fc, mfFcεR1α.MMH injected, 37°C. As to the method:
as §1, §2

Assay [3] concerns the target T2, human CD3 expressed in Jurkat cells (human, UniProt P07766; P04234; P20963; P09693). As to the kind of experiment: cell-based or functional assay.
Assay [4] addresses T2, human CD3 expressed in Jurkat cells. Kind of assay: flow cytometry, 70 nM antibody on Jurkat/NFAT-luc cells, No IgE. As to the method:
For flow cytometry analysis, HEK293, HEK293/hFcεR1α/hFcεR1β/hFcεR1γ and HEK293/mf FcεR1α/hFcεR1β/hFcεR1γ cells were collected after dissociation using Enzyme Free Dissociation Buffer (Millipore Cat# S-004), and the cells were pre-incubated with or without 70 nM human IgE, for 30 minutes on ice in FACS buffer (PBS, without Ca⁺⁺ and Mg⁺⁺, (Irvine Scientific, Cat#9240) containing 2% FBS). Jurkat/NFAT-luc cells were also collected. The antibodies at the concentration of 70 nM were then added to 1×10⁶ cells/well of each cell type at 4° C. for 30 minutes. […] Cells were fixed using BD CytoFix™ (Becton Dickinson, Cat. #554655) and analyzed on Accuri™ C6 (BD) or CytoFLEX Flow cytometer (Beckman Coulter). Unstained and secondary antibody alone controls were also tested for all cell lines and a sample was evaluated for viability using the Far Red Fluo viability dye (Thermo Fisher, Cat#L10120) according to the manufacturer's protocol. The results were analyzed using FlowJo software (version 10.0.8, FlowJo) to determine the geometric means of fluorescence for viable cells and the binding ratio was calculated with the mean fluorescence intensity (MFI) of the experimental condition normalized by the MFI of the unstained respective cells.

T2 sequence (P07766 23-207 limits assumed, chain 1 of 4): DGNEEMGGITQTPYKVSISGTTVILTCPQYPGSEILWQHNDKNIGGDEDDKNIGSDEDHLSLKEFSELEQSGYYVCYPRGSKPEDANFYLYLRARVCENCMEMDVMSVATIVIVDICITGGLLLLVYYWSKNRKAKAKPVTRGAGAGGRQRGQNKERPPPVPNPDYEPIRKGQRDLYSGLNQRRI
T2 sequence (P04234 22-171 limits assumed, chain 2 of 4, further chain): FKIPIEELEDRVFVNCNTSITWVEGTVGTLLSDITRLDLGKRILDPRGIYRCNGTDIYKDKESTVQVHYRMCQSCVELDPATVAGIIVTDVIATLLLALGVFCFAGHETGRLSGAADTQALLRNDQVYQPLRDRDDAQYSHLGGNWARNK
T2 sequence (P20963 22-164 limits assumed, chain 3 of 4, further chain): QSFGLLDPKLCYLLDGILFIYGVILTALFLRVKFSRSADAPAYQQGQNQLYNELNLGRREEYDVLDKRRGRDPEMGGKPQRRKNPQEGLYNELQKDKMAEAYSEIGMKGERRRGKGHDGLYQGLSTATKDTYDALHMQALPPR
T2 sequence (P09693 23-182 limits assumed, chain 4 of 4, further chain): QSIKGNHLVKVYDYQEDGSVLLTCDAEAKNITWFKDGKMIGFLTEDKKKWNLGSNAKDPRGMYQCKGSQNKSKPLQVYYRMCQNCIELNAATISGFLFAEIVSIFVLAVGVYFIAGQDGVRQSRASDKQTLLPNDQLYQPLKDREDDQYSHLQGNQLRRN

B1: mAb17110 (antibody, human IgG4 S228P, kappa)
heavy: QVQLQESGPGLVKPSETLSLTCTVSGDSISDYYWIWIRQPPGKGLEWIGYIYYSGSTNYNPSLKSRVTISVATSKNQFSLKLRSVTAADTAMYYCARRNNWNHVRAFDIWGQGTMVTVSSASTKGPSVFPLAPCSRSTSESTAALGCLVKDYFPEPVTVSWNSGALTSGVHTFPAVLQSSGLYSLSSVVTVPSSSLGTKTYTCNVDHKPSNTKVDKRV[human IgG4 Fc with S228P (EU numbers) omitted here]
light: [about 100 residues omitted here][about 120 residues omitted here]
notes: also called anti-FcεR1α monoclonal antibody
With B1, in the assay with mfFcεR1α.MMH [1], the “600 nM mfFceR1a.MMH Bound (RU)” value amounted to 79 RU, the Kd was determined as 221 nM, the koff came to 0.0136 s⁻¹ and the kon is 61300 M⁻¹ s⁻¹. Further, the t½ with mfFcεR1α.MMH [1] was 48 s. Moreover, in the assay with mfFcεR1α.MMH [2], the “600 nM mfFceR1a.MMH Bound (RU)” value turned out to be 53 RU, the Kd amounted to 428 nM, the koff is 0.0254 s⁻¹ and the kon was 59400 M⁻¹ s⁻¹. In the assay with mfFcεR1α.MMH [2], this molecule registered a t½ of 27 s. In addition, in assay [3], the “Fold Activation, Jurkat/NFAT-luc with HEK293/hFcεR1α/hFcεR1β/hFcεR1γ cells, 10 nM IgE” value (shortened to “Fold Activation, Jurkat/NFAT-luc … 10 nM IgE”) turned out to be 1 fold and the “Fold Activation, Jurkat/NFAT-luc with HEK293/hFcεR1α/hFcεR1β/hFcεR1γ cells, No IgE” value (“Fold Activation, Jurkat/NFAT-luc … No IgE” below) came out at 1 fold.

B2: mAb17112 (antibody, human IgG4 S228P, kappa)
heavy: QVQVQESGPRLVKPSETLSLTCTVSGGSMSSYYWIWIRQPPGKELEWIGYIYYSGSTNYNPSLKSRATISVDTSKNQFSLNLNSVTAADTAVYYCARRNNWNYVRAFDIWGQGTMVTVSSASTKGPSVFPLAPCSRSTSESTAALGCLVKDYFPEPVTVSWNSGALTSGVHTFPAVLQSSGLYSLSSVVTVPSSSLGTKTYTCNVDHKPSNTKVDKRV[human IgG4 Fc with S228P (EU numbers) omitted here]
light: [about 100 residues omitted here][about 120 residues omitted here]
notes: as for B1
As to B2, in the assay with mfFcεR1α.MMH [1], the “600 nM mfFceR1a.MMH Bound (RU)” value came to 110 RU, the Kd came out at 195 nM, the koff came to 0.0139 s⁻¹ and the kon came to 71300 M⁻¹ s⁻¹. This molecule also displayed a t½ in the assay with mfFcεR1α.MMH [1] of 48 s. In the assay with mfFcεR1α.MMH [2], the “600 nM mfFceR1a.MMH Bound (RU)” value was determined as 81 RU, the Kd worked out at 330 nM, the koff was determined as 0.0328 s⁻¹ and the kon stood at 99400 M⁻¹ s⁻¹. Also, in the assay with mfFcεR1α.MMH [2], the t½ stood at 21 s. For the same molecule, in assay [3], the “Fold Activation, Jurkat/NFAT-luc … 10 nM IgE” value stood at 1 fold and the “Fold Activation, Jurkat/NFAT-luc … No IgE” value was found to be 1 fold. For the same molecule, the “Binding Ratio (MFI of Treated/MFI of Unstained)” value in assay [4] is 1.

B3: mAb17111 (antibody, human IgG4 S228P, kappa)
heavy: QVQLQESGPGLVKPSETLSLTCTVSGDSINDYYWSWLRQPPGKGLEWIGYIYYSGSTNYNPSLKSRVTISVDTSKNQFSLKLSSVTAADTAVYYCTRRNNWNYVRAFDIWGQGTMVTVSSASTKGPSVFPLAPCSRSTSESTAALGCLVKDYFPEPVTVSWNSGALTSGVHTFPAVLQSSGLYSLSSVVTVPSSSLGTKTYTCNVDHKPSNTKVDKRV[human IgG4 Fc with S228P (EU numbers) omitted here]
light: [about 100 residues omitted here][about 120 residues omitted here]
notes: as for B1
On to B3, for which, in the assay with mfFcεR1α.MMH [1], the “600 nM mfFceR1a.MMH Bound (RU)” value worked out at 60 RU, binding was characterised by a dissociation constant (Kd) of 247 nM, the koff turned out to be 0.0137 s⁻¹ and the kon was determined as 55500 M⁻¹ s⁻¹. The t½ with mfFcεR1α.MMH [1] is 48 s. In addition, in the assay with mfFcεR1α.MMH [2], the “600 nM mfFceR1a.MMH Bound (RU)” value is 38 RU, the Kd amounted to 510 nM, the koff was 0.0264 s⁻¹ and the kon was determined as 51700 M⁻¹ s⁻¹. Also, in the assay with mfFcεR1α.MMH [2], the t½ was 26.4 s. In assay [3], the “Fold Activation, Jurkat/NFAT-luc … 10 nM IgE” value was determined as 1 fold and the “Fold Activation, Jurkat/NFAT-luc … No IgE” value came out at 1 fold. Also, in assay [4], the “Binding Ratio (MFI of Treated/MFI of Unstained)” value worked out at 1.
